# Test results taken from the supplement of paper PMC8728848.
# The other results are listed elsewhere or left out.
# B1: PVL (Psathyrella velutina), Q309D1_9AGAR (protein)
# chain: MSVVVISQALPVPTRIPGVADLVGFGNGGVYIIRNSLLIQVVKVINNFGYDAGGWRVEKHVRLLADTTGDNQPDVVGFGENGVWISTNNGNNTFVDPPKMVLANFAYAAGGWRVEKHIRFMADLRKTGRADIVGFGDGGIYISRNNGGGQFAPAQLALNNFGYAQGWRLDRHLRFLADVTGDGLLDVVGFGENQVYIARNSGNGTFQPAQAVVNNFCIGAGGWTISAHPRVVADLTGDRKADILGFGVAGVYTSLNNGNGTFGAVNLVLKDFGVNSGWRVEKHVRCVSSLTNKKVGDIIGFGDAGVYVALNNGNGTFGPVKRVIDNFGYNQGWRVDKHPRFVVDLTGDGCADIVGFGENSVWACMNKGDGTFGPIMKLIDDMTVSKGWTLQKTVRYAANLYL
# Legend:
# Experiment in all cases: glycan array binding signal (z-score within array); higher = stronger binding
# Conditions in all cases: glycan notation: IUPAC condensed, linker removed
# [1] = target: Neu5Ac(a2-3)Gal(b1-3)GlcNAc(b1-6)GalNAc
# Procedure, shortened: (§1)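 Glycan array binding is given as a within-array Z-score, which can be read as non-binding when negative. The arrays, 3228 of them, came from the Consortium for Functional Glycomics database and were retained only where the protein sequence was available. Z-scores were averaged across arrays of the same protein sequence at different concentrations or buffers and across linkers.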
# [2] = target: Neu5Ac(a2-3)Gal(b1-3)GlcNAc6S
# Procedure, shortened: as §1
# [3] = target: Neu5Ac(a2-3)Gal(b1-3)[Fuc(a1-4)]GlcNAc
# Procedure, shortened: as §1
# [4] = target: Neu5Ac(a2-3)Gal(b1-3)[Fuc(a1-4)]GlcNAc(b1-3)Gal(b1-3)[Fuc(a1-4)]GlcNAc
# Procedure, shortened: as §1
# [5] = target: Neu5Ac(a2-3)Gal(b1-3)[Fuc(a1-4)]GlcNAc(b1-3)Gal(b1-4)[Fuc(a1-3)]GlcNAc
# Procedure, shortened: as §1
# [6] = target: Neu5Ac(a2-3)Gal(b1-3)[GlcNAc(b1-6)]GalNAc
# Procedure, shortened: as §1
# [7] = target: Neu5Ac(a2-3)Gal(b1-3)[Neu5Ac(a2-6)]GalNAc
# Procedure, shortened: as §1
# [8] = target: Neu5Ac(a2-3)Gal(b1-3)[Neu5Ac(a2-6)]GlcNAc(b1-3)[Fuc(a1-3)[Gal(b1-4)]GlcNAc(b1-6)]Gal(b1-4)Glc
# Procedure, shortened: as §1
# [9] = target: Neu5Ac(a2-3)Gal(b1-3)]Neu5Ac(a2-3)Gal(b1-4)]GlcNAc
# Procedure, shortened: as §1
# Neu5Ac(a2-3)Gal(b1-4)Glc = target: Neu5Ac(a2-3)Gal(b1-4)Glc
# Procedure, shortened: as §1
# [10] = target: Neu5Ac(a2-3)Gal(b1-4)GlcNAc
# Procedure, shortened: as §1
# [11] = target: Neu5Ac(a2-3)Gal(b1-4)GlcNAc(b1-2)Man
# Procedure, shortened: as §1
# [12] = target: Neu5Ac(a2-3)Gal(b1-4)GlcNAc(b1-2)Man(a1-3)[GlcNAc(b1-4)][Neu5Ac(a2-3)Gal(b1-4)GlcNAc(b1-2)Man(a1-6)]Man(b1-4)GlcNAc(b1-4)GlcNAc
# Procedure, shortened: as §1
# [13] = target: Neu5Ac(a2-3)Gal(b1-4)GlcNAc(b1-2)Man(a1-3)[Neu5Ac(a2-3)Gal(b1-4)GlcNAc(b1-2)Man(a1-6)]Man(b1-4)GlcNAc(b1-4)GlcNAc
# Procedure, shortened: as §1
# [14] = target: Neu5Ac(a2-3)Gal(b1-4)GlcNAc(b1-2)Man(a1-3)[Neu5Ac(a2-3)Gal(b1-4)GlcNAc(b1-2)Man(a1-6)]Man(b1-4)GlcNAc(b1-4)[Fuc(a1-6)]GlcNAc
# Procedure, shortened: as §1
# [15] = target: Neu5Ac(a2-3)Gal(b1-4)GlcNAc(b1-2)Man(a1-3)[Neu5Ac(a2-6)Gal(b1-4)GlcNAc(b1-2)Man(a1-6)]Man(b1-4)GlcNAc(b1-4)GlcNAc
# Procedure, shortened: as §1
# [16] = target: Neu5Ac(a2-3)Gal(b1-4)GlcNAc(b1-2)[Neu5Ac(a2-3)Gal(b1-4)GlcNAc(b1-4)]Man(a1-3)[GlcNAc(b1-4)][Neu5Ac(a2-3)Gal(b1-4)GlcNAc(b1-2)[Neu5Ac(a2-3)Gal(b1-4)GlcNAc(b1-6)]Man(a1-6)]Man(b1-4)GlcNAc(b1-4)GlcNAc
# Procedure, shortened: as §1
# [17] = target: Neu5Ac(a2-3)Gal(b1-4)GlcNAc(b1-2)[Neu5Ac(a2-3)Gal(b1-4)GlcNAc(b1-4)]Man(a1-3)[GlcNAc(b1-4)][Neu5Ac(a2-3)Gal(b1-4)GlcNAc(b1-4)Man(a1-6)]Man(b1-4)GlcNAc(b1-4)GlcNAc
# Procedure, shortened: as §1
# [18] = target: Neu5Ac(a2-3)Gal(b1-4)GlcNAc(b1-2)[Neu5Ac(a2-3)Gal(b1-4)GlcNAc(b1-6)]Man(a1-6)[Neu5Ac(a2-3)Gal(b1-4)GlcNAc(b1-2)Man(a1-3)][GlcNAc(b1-4)]Man(b1-4)GlcNAc(b1-4)GlcNAc
# Procedure, shortened: as §1
# [19] = target: Neu5Ac(a2-3)Gal(b1-4)GlcNAc(b1-3)Gal
# Procedure, shortened: as §1
# [20] = target: Neu5Ac(a2-3)Gal(b1-4)GlcNAc(b1-3)Gal(b1-3)GlcNAc
# Procedure, shortened: as §1
# [21] = target: Neu5Ac(a2-3)Gal(b1-4)GlcNAc(b1-3)Gal(b1-4)GlcNAc
# Procedure, shortened: as §1
# [22] = target: Neu5Ac(a2-3)Gal(b1-4)GlcNAc(b1-3)Gal(b1-4)GlcNAc(b1-2)Man(a1-3)[Neu5Ac(a2-3)Gal(b1-4)GlcNAc(b1-3)Gal(b1-4)GlcNAc(b1-2)Man(a1-6)]Man(b1-4)GlcNAc(b1-4)GlcNAc
# Procedure, shortened: as §1
# [23] = target: Neu5Ac(a2-3)Gal(b1-4)GlcNAc(b1-3)Gal(b1-4)GlcNAc(b1-3)Gal(b1-4)GlcNAc
# Procedure, shortened: as §1
# [24] = target: Neu5Ac(a2-3)Gal(b1-4)GlcNAc(b1-3)Gal(b1-4)GlcNAc(b1-3)Gal(b1-4)GlcNAc(b1-2)Man(a1-3)[Neu5Ac(a2-3)Gal(b1-4)GlcNAc(b1-3)Gal(b1-4)GlcNAc(b1-3)Gal(b1-4)GlcNAc(b1-2)Man(a1-6)]GalNAc
# Procedure, shortened: as §1
# [25] = target: Neu5Ac(a2-3)Gal(b1-4)GlcNAc(b1-3)Gal(b1-4)GlcNAc(b1-3)GalNAc
# Procedure, shortened: as §1
# [26] = target: Neu5Ac(a2-3)Gal(b1-4)GlcNAc(b1-3)Gal(b1-4)GlcNAc(b1-3)[Neu5Ac(a2-3)Gal(b1-4)GlcNAc(b1-3)Gal(b1-4)GlcNAc(b1-6)]GalNAc
# Procedure, shortened: as §1
# [27] = target: Neu5Ac(a2-3)Gal(b1-4)GlcNAc(b1-3)Gal(b1-4)GlcNAc(b1-6)[Gal(b1-3)]GalNAc
# Procedure, shortened: as §1
# [28] = target: Neu5Ac(a2-3)Gal(b1-4)GlcNAc(b1-3)Gal(b1-4)[Fuc(a1-3)]GlcNAc
# Procedure, shortened: as §1
# [29] = target: Neu5Ac(a2-3)Gal(b1-4)GlcNAc(b1-3)GalNAc
# Procedure, shortened: as §1
binder,measurement,setting,value
B1,glycan array binding signal (z-score),[1],-0.344
same,glycan array binding signal (z-score),[2],-0.359
same,glycan array binding signal (z-score),[3],-0.129
same,glycan array binding signal (z-score),[4],-0.304
same,glycan array binding signal (z-score),[5],-0.232
same,glycan array binding signal (z-score),[6],-0.038
same,glycan array binding signal (z-score),[7],0.067
same,glycan array binding signal (z-score),[8],-0.302
same,glycan array binding signal (z-score),[9],0.362
same,glycan array binding signal (z-score),Neu5Ac(a2-3)Gal(b1-4)Glc,-0.295
same,glycan array binding signal (z-score),[10],-0.206
same,glycan array binding signal (z-score),[11],-0.35
same,glycan array binding signal (z-score),[12],-0.318
same,glycan array binding signal (z-score),[13],-0.124
same,glycan array binding signal (z-score),[14],0.357
same,glycan array binding signal (z-score),[15],-0.328
same,glycan array binding signal (z-score),[16],-0.201
same,glycan array binding signal (z-score),[17],-0.284
same,glycan array binding signal (z-score),[18],-0.3
same,glycan array binding signal (z-score),[19],-0.075
same,glycan array binding signal (z-score),[20],-0.107
same,glycan array binding signal (z-score),[21],-0.113
same,glycan array binding signal (z-score),[22],0.564
same,glycan array binding signal (z-score),[23],0.557
same,glycan array binding signal (z-score),[24],-0.299
same,glycan array binding signal (z-score),[25],0.268
same,glycan array binding signal (z-score),[26],0.034
same,glycan array binding signal (z-score),[27],-0.243
same,glycan array binding signal (z-score),[28],-0.285
same,glycan array binding signal (z-score),[29],-0.316
